By IC50 is meant the dose at which the fit gives 50% viability; where the fit passes the top or lowest dose, that dose stands as a limit. AUC, from the same fit, is the share of area under the viability curve across the 256-fold dose range: 1 means no effect, lower means more sensitive. An inferred top dose was calculated from the reported fits.
How the values were obtained:
Test in all cases: Viability of human cancer cell lines after 72 h of drug (GDSC screen)
NG-25 = compound: CCN1CCN(Cc2ccc(NC(=O)c3ccc(C)c(Oc4ccnc5[nH]ccc45)c3)cc2C(F)(F)F)CC1 [NG-25]; conditions: top dose 10.24 µM; top dose inferred
Experimental: (§1)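 Human cancer cell lines in 384-well plates, medium with 10% serum, drug for 72 h over a 256-fold dose range (nine 2-fold or five 4-fold steps up to the top dose). Adherent lines were fixed and stained with the nucleic acid dye Syto60, suspension lines read with resazurin; signal relative to control wells, capped at 0 and 100%. One two-parameter sigmoid per drug and line, fitted in a mixed model over all curves with the slope shared within a line.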

GSK-1904529A = compound: CCc1cc(Nc2nccc(-c3c(-c4ccc(OC)c(C(=O)Nc5c(F)cccc5F)c4)nc4ccccn34)n2)c(OC)cc1N1CCC(N2CCN(S(C)(=O)=O)CC2)CC1 [GSK-1904529A]; conditions: top dose 1.024 µM; top dose inferred
Experimental: as §1

PFI-1 = compound: COc1ccccc1S(=O)(=O)Nc1ccc2c(c1)CN(C)C(=O)N2 [PFI-1]; conditions: top dose 10 µM; top dose inferred
Experimental: as §1

Tipifarnib = compound: Cn1cncc1[C@@](N)(c1ccc(Cl)cc1)c1ccc2c(c1)c(-c1cccc(Cl)c1)cc(=O)n2C [Tipifarnib]; conditions: top dose 16 µM; top dose inferred
Experimental: as §1

| Cell Line | AUC (NG-25) | IC50 (NG-25) [µM] | AUC (GSK-1904529A) | IC50 (GSK-1904529A) [µM] | AUC (PFI-1) | IC50 (PFI-1) [µM] | AUC (Tipifarnib) | IC50 (Tipifarnib) [µM] |
| --- | --- | --- | --- | --- | --- | --- | --- | --- |
| RPMI-2650 (head and neck, adherent) | 0.834 | 7.46 | 0.98 | > 1.02 | 0.836 | 7.4 | 0.706 | 4.01 |
| RPMI-7951 (melanoma, adherent) | 0.877 | 9.75 | 0.986 | > 1.02 | 0.891 | > 10 | 0.777 | 6.25 |
| RT4 (bladder, adherent) | 0.707 | 2.55 | 0.983 | > 1.02 | 0.937 | > 10 | 0.755 | 5.67 |
| RT-112 (bladder, adherent) | 0.8 | 5.38 | 0.981 | > 1.02 | 0.972 | > 10 | 0.372 | 0.431 |
| RVH-421 (melanoma, adherent) | 0.819 | 8.86 | 0.971 | > 1.02 | 0.876 | > 10 | 0.786 | 9.83 |
| SAS (head and neck, adherent) | 0.903 | > 10.2 | 0.973 | > 1.02 | 0.652 | 1.74 | 0.847 | 13.8 |
| SBC-3 (small cell lung carcinoma, adherent) | 0.783 | 3.89 | 0.94 | > 1.02 | 0.728 | 2.59 | 0.27 | 0.239 |
| SBC-5 (small cell lung carcinoma, adherent) | 0.913 | 10.1 | 0.992 | > 1.02 | 0.929 | > 10 | 0.683 | 2.91 |
| SCC-4 (head and neck, adherent) | 0.962 | > 10.2 | 0.961 | > 1.02 | 0.873 | > 10 | 0.515 | 1.11 |
| SCC-9 (head and neck, adherent) | 0.839 | 9.95 | 0.958 | > 1.02 | 0.867 | > 10 | 0.908 | > 16 |
| SCC-25 (head and neck, adherent) | 0.794 | 5.45 | 0.969 | > 1.02 | 0.912 | > 10 | 0.745 | 5.59 |
| SF295 (glioma, adherent) | 0.934 | > 10.2 | 0.977 | > 1.02 | 0.806 | 5.56 | 0.481 | 0.882 |
| SISO (cervix, adherent) | 0.973 | > 10.2 | 0.984 | > 1.02 | 0.851 | 7.18 | 0.541 | 1.29 |
| SJRH30 (rhabdomyosarcoma, adherent) | 0.986 | > 10.2 | 0.957 | > 1.02 | 0.897 | > 10 | 0.799 | 7.99 |
| SK-CO-1 (large intestine, adherent) | 0.974 | > 10.2 | 0.988 | > 1.02 | 0.96 | > 10 | 0.807 | 7.61 |
| SK-HEP-1 (liver, adherent) | 0.875 | 8.91 | 0.97 | > 1.02 | 0.865 | 7.9 | 0.359 | 0.42 |

| Cell Line | AUC (NG-25) | IC50 (NG-25) [µM] | AUC (GSK-1904529A) | IC50 (GSK-1904529A) [µM] | AUC (PFI-1) | IC50 (PFI-1) [µM] | AUC (Tipifarnib) | IC50 (Tipifarnib) [µM] |
| --- | --- | --- | --- | --- | --- | --- | --- | --- |
| SK-LU-1 (lung adenocarcinoma, adherent) | 0.897 | > 10.2 | 0.963 | > 1.02 | 0.92 | > 10 | 0.677 | 3.6 |
| SK-MEL-3 (melanoma, adherent) | 0.749 | 3.8 | 0.967 | > 1.02 | 0.943 | > 10 | 0.671 | 3.26 |
| SK-MEL-24 (melanoma, adherent) | 0.78 | 5.17 | 0.975 | > 1.02 | 0.898 | > 10 | 0.601 | 2.02 |
| SK-MEL-28 (melanoma, adherent) | 0.893 | > 10.2 | 0.977 | > 1.02 | 0.805 | 4.94 | 0.876 | 15.4 |
| SK-MEL-30 (melanoma, adherent) | 0.872 | > 10.2 | 0.974 | > 1.02 | 0.863 | 9.42 | 0.679 | 3.25 |
| SK-MES-1 (lung squamous cell carcinoma, adherent) | 0.904 | > 10.2 | 0.978 | > 1.02 | 0.83 | 7.03 | 0.547 | 1.36 |
| SK-N-AS (neuroblastoma, adherent) | 0.977 | > 10.2 | 0.975 | > 1.02 | 0.816 | 6.65 | 0.857 | > 16 |
| SK-N-SH (neuroblastoma, adherent) | 0.895 | > 10.2 | 0.983 | > 1.02 | 0.902 | > 10 | 0.268 | 0.22 |
| SK-OV-3 (ovary, adherent) | 0.869 | > 10.2 | 0.951 | > 1.02 | 0.857 | > 10 | 0.549 | 1.4 |
| SKG-IIIa (cervix, adherent) | 0.983 | > 10.2 | 0.976 | > 1.02 | 0.908 | > 10 | 0.936 | > 16 |
| SKN (uterus, adherent) | 0.982 | > 10.2 | 0.982 | > 1.02 | 0.829 | 8.1 | 0.818 | 11.5 |
| SKN-3 (head and neck, adherent) | 0.853 | > 10.2 | 0.983 | > 1.02 | 0.786 | 5.19 | 0.98 | > 16 |
| SN12C (kidney, adherent) | 0.985 | > 10.2 | 0.981 | > 1.02 | 0.923 | > 10 | 0.782 | 7.56 |
| SNG-M (endometrium, adherent) | 0.767 | 3.73 | 0.959 | > 1.02 | 0.719 | 2.57 | 0.286 | 0.253 |
| SNU-182 (liver, adherent) | 0.917 | > 10.2 | 0.977 | > 1.02 | 0.927 | > 10 | 0.806 | 8.6 |
